From patent publication US20180030500A1, “ENRICHMENT AND SELECTIVE CULTURE OF MYCOBACTERIA” (priority 2015, published 2018)
Read-outs that look alike come from different tables or passages of the source.

System: Other non-fermentative bacteria
Conditions: 10 strains, 7 days
[1] = selective agent 400 mg/l in medium L
[2] = selective agent 800 mg/l in medium L
[3] = selective agent 1600 mg/l in medium L
[4] = selective agent 0.125 mg/l in medium L
[5] = selective agent 0.25 mg/l in medium L
[6] = selective agent 0.5 mg/l in medium L
[7] = selective agent 2.5 mg/l in medium L
[8] = selective agent 5.0 mg/l in medium L
[9] = selective agent 10 mg/l in medium L
[10] = selective agent 32 mg/l in medium L
[11] = selective agent 64 mg/l in medium L
[12] = selective agent 128 mg/l in medium L
[13] = selective agent 16 mg/l in medium L

C[C@@H]1O[C@@H]1P(=O)(O)O [fosfomycin]
Number of strains having shown growth [1]: 6
Percentage of strains having shown growth [1]: (60%)
Number of strains having shown growth [2]: 6
Percentage of strains having shown growth [2]: (60%)
Number of strains having shown growth [3]: 5
Percentage of strains having shown growth [3]: (50%)

CN(C)c1ccc(C(=C2C=CC(=[N+](C)C)C=C2)c2ccccc2)cc1 [malachite green]
Number of strains having shown growth [4]: 10
Percentage of strains having shown growth [4]: (100%)
Number of strains having shown growth [5]: 10
Percentage of strains having shown growth [5]: (100%)
Number of strains having shown growth [6]: 10
Percentage of strains having shown growth [6]: (100%)

CN[C@H](CC(C)C)C(=O)N[C@H]1C(=O)N[C@@H](CC(N)=O)C(=O)N[C@H]2C(=O)N[C@H]3C(=O)N[C@H](C(=O)N[C@H](C(=O)O)c4cc(O)cc(O)c4-c4cc3ccc4O)[C@H](O)c3ccc(c(Cl)c3)Oc3cc2cc(c3O[C@@H]2O[C@H](CO)[C@@H](O)[C@H](O)[C@H]2O[C@H]2C[C@](C)(N)[C@H](O)[C@H](C)O2)Oc2ccc(cc2Cl)[C@H]1O [vancomycin]
Number of strains having shown growth [7]: 9
Percentage of strains having shown growth [7]: (90%)
Number of strains having shown growth [8]: 9
Percentage of strains having shown growth [8]: (90%)
Number of strains having shown growth [9]: 9
Percentage of strains having shown growth [9]: (90%)

CCN(CC)c1ccc(C2(Cl)c3ccccc3N(c3ccccc3)c3ccccc32)cc1 [Medium C-390, 9-chloro-9-(4′-diethylamino)phenyl-9,10-dihydro-10-phenylacridine]
Number of strains having shown growth [10]: 7
Percentage of strains having shown growth [10]: (70%)
Number of strains having shown growth [11]: 4
Percentage of strains having shown growth [11]: (40%)
Number of strains having shown growth [12]: 2
Percentage of strains having shown growth [12]: (20%)

colistin methanesulfonate
Number of strains having shown growth [10]: 10
Percentage of strains having shown growth [10]: (100%)
Number of strains having shown growth [11]: 10
Percentage of strains having shown growth [11]: (100%)
Number of strains having shown growth [12]: 10
Percentage of strains having shown growth [12]: (100%)

CCn1cc(C(=O)O)c(=O)c2ccc(C)nc21 [nalidixic acid]
Number of strains having shown growth [13]: 10
Percentage of strains having shown growth [13]: (100%)
Number of strains having shown growth [10]: 10
Percentage of strains having shown growth [10]: (100%)
Number of strains having shown growth [11]: 10
Percentage of strains having shown growth [11]: (100%)
